The supplement of paper PMC8728848
Some of the results follow.

Key:
Test in all cases: glycan array binding signal (z-score within array); higher = stronger binding
Conditions in all cases: glycan notation: IUPAC condensed, linker removed
[1] = target: Gal(b1-4)GlcNAc(b1-3)Gal(b1-4)GlcNAc(b1-3)Gal(b1-4)GlcNAc
How it was run: (§1)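 From the Consortium for Functional Glycomics database, 3228 arrays were curated, keeping only those whose protein sequence was available. Binding is given as a within-array Z-score averaged across arrays sharing a protein sequence and across linkers. Negative Z-scores can be read as non-binding.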

[2] = target: Gal(b1-4)GlcNAc(b1-3)Gal(b1-4)GlcNAc(b1-3)Gal(b1-4)GlcNAc(b1-2)Man(a1-3)[Gal(b1-4)GlcNAc(b1-3)Gal(b1-4)GlcNAc(b1-3)Gal(b1-4)GlcNAc(b1-2)Man(a1-6)]Man(b1-4)GlcNAc(b1-4)GlcNAc
How it was run: as §1

[3] = target: Gal(b1-4)GlcNAc(b1-3)Gal(b1-4)GlcNAc(b1-3)Gal(b1-4)GlcNAc(b1-2)Man(a1-3)[Gal(b1-4)GlcNAc(b1-3)Gal(b1-4)GlcNAc(b1-3)Gal(b1-4)GlcNAc(b1-2)Man(a1-6)]Man(b1-4)GlcNAc(b1-4)[Fuc(a1-6)]GlcNAc
How it was run: as §1

[4] = target: Gal(b1-4)GlcNAc(b1-3)Gal(b1-4)GlcNAc(b1-3)Gal(b1-4)GlcNAc(b1-2)[Gal(b1-4)GlcNAc(b1-3)Gal(b1-4)GlcNAc(b1-3)Gal(b1-4)GlcNAc(b1-6)]Man(a1-6)[Gal(b1-4)GlcNAc(b1-3)Gal(b1-4)GlcNAc(b1-3)Gal(b1-4)GlcNAc(b1-2)Man(a1-3)]Man(b1-4)GlcNAc(b1-4)[Fuc(a1-6)]GlcNAc
How it was run: as §1

[5] = target: Gal(b1-4)GlcNAc(b1-3)Gal(b1-4)GlcNAc(b1-3)Gal(b1-4)GlcNAc(b1-3)Gal(b1-4)GlcNAc(b1-2)Man(a1-3)[Gal(b1-4)GlcNAc(b1-3)Gal(b1-4)GlcNAc(b1-3)Gal(b1-4)GlcNAc(b1-3)Gal(b1-4)GlcNAc(b1-2)Man(a1-6)]Man(b1-4)GlcNAc(b1-4)GlcNAc
How it was run: as §1

[6] = target: Gal(b1-4)GlcNAc(b1-3)Gal(b1-4)GlcNAc(b1-3)Gal(b1-4)GlcNAc(b1-3)Gal(b1-4)GlcNAc(b1-2)Man(a1-3)[Gal(b1-4)GlcNAc(b1-3)Gal(b1-4)GlcNAc(b1-3)Gal(b1-4)GlcNAc(b1-3)Gal(b1-4)GlcNAc(b1-2)Man(a1-6)]Man(b1-4)GlcNAc(b1-4)[Fuc(a1-6)]GlcNAc
How it was run: as §1

[7] = target: Gal(b1-4)GlcNAc(b1-3)Gal(b1-4)GlcNAc(b1-3)Gal(b1-4)GlcNAc(b1-3)Gal(b1-4)GlcNAc(b1-2)[Gal(b1-4)GlcNAc(b1-3)Gal(b1-4)GlcNAc(b1-3)Gal(b1-4)GlcNAc(b1-3)Gal(b1-4)GlcNAc(b1-6)]Man(a1-6)[Gal(b1-4)GlcNAc(b1-3)Gal(b1-4)GlcNAc(b1-3)Gal(b1-4)GlcNAc(b1-3)Gal(b1-4)GlcNAc(b1-2)Man(a1-3)]Man(b1-4)GlcNAc(b1-4)[Fuc(a1-6)]GlcNAc
How it was run: as §1

[8] = target: Gal(b1-4)GlcNAc(b1-3)Gal(b1-4)GlcNAc(b1-3)Gal(b1-4)GlcNAc(b1-3)Gal(b1-4)GlcNAc(b1-3)Gal(b1-4)GlcNAc(b1-2)Man(a1-3)[Gal(b1-4)GlcNAc(b1-3)Gal(b1-4)GlcNAc(b1-3)Gal(b1-4)GlcNAc(b1-3)Gal(b1-4)GlcNAc(b1-3)Gal(b1-4)GlcNAc(b1-2)Man(a1-6)]Man(b1-4)GlcNAc(b1-4)GlcNAc
How it was run: as §1

[9] = target: Gal(b1-4)GlcNAc(b1-3)Gal(b1-4)GlcNAc(b1-3)Gal(b1-4)GlcNAc(b1-3)Gal(b1-4)GlcNAc(b1-3)Gal(b1-4)GlcNAc(b1-2)Man(a1-3)[Gal(b1-4)GlcNAc(b1-3)Gal(b1-4)GlcNAc(b1-3)Gal(b1-4)GlcNAc(b1-3)Gal(b1-4)GlcNAc(b1-3)Gal(b1-4)GlcNAc(b1-2)Man(a1-6)]Man(b1-4)GlcNAc(b1-4)[Fuc(a1-6)]GlcNAc
How it was run: as §1

[10] = target: Gal(b1-4)GlcNAc(b1-3)Gal(b1-4)GlcNAc(b1-3)Gal(b1-4)GlcNAc(b1-3)Gal(b1-4)GlcNAc(b1-3)Gal(b1-4)GlcNAc(b1-2)[Gal(b1-4)GlcNAc(b1-3)Gal(b1-4)GlcNAc(b1-3)Gal(b1-4)GlcNAc(b1-3)Gal(b1-4)GlcNAc(b1-3)Gal(b1-4)GlcNAc(b1-6)]Man(a1-6)[Gal(b1-4)GlcNAc(b1-3)Gal(b1-4)GlcNAc(b1-3)Gal(b1-4)GlcNAc(b1-3)Gal(b1-4)GlcNAc(b1-3)Gal(b1-4)GlcNAc(b1-2)Man(a1-3)]Man(b1-4)GlcNAc(b1-4)[Fuc(a1-6)]GlcNAc
How it was run: as §1

[11] = target: Gal(b1-4)GlcNAc(b1-3)Gal(b1-4)GlcNAc(b1-3)Gal(b1-4)GlcNAc(b1-3)Gal(b1-4)GlcNAc(b1-3)Gal(b1-4)GlcNAc(b1-3)Gal(b1-4)GlcNAc(b1-2)Man(a1-3)[Gal(b1-4)GlcNAc(b1-3)Gal(b1-4)GlcNAc(b1-3)Gal(b1-4)GlcNAc(b1-3)Gal(b1-4)GlcNAc(b1-3)Gal(b1-4)GlcNAc(b1-3)Gal(b1-4)GlcNAc(b1-2)Man(a1-6)]Man(b1-4)GlcNAc(b1-4)GlcNAc
How it was run: as §1

[12] = target: Gal(b1-4)GlcNAc(b1-3)Gal(b1-4)GlcNAc(b1-3)GalNAc
How it was run: as §1

[13] = target: Gal(b1-4)GlcNAc(b1-3)Gal(b1-4)GlcNAc(b1-3)[Gal(b1-4)GlcNAc(b1-3)Gal(b1-4)GlcNAc(b1-6)]GalNAc
How it was run: as §1

[14] = target: Gal(b1-4)GlcNAc(b1-3)Gal(b1-4)GlcNAc(b1-6)[Gal(b1-3)]GalNAc
How it was run: as §1

[15] = target: Gal(b1-4)GlcNAc(b1-3)Gal(b1-4)[Fuc(a1-3)]GlcNAc(b1-3)Gal(b1-4)[Fuc(a1-3)]GlcNAc
How it was run: as §1

[16] = target: Gal(b1-4)GlcNAc(b1-3)GalNAc
How it was run: as §1

[17] = target: Gal(b1-4)GlcNAc(b1-3)[Fuc(a1-3)GlcNAc(b1-6)]Gal(b1-4)Glc
How it was run: as §1

[18] = target: Gal(b1-4)GlcNAc(b1-3)[Gal(b1-4)GlcNAc(b1-6)]Gal(b1-4)GlcNAc
How it was run: as §1

[19] = target: Gal(b1-4)GlcNAc(b1-3)[Gal(b1-4)GlcNAc(b1-6)]GalNAc
How it was run: as §1

[20] = target: Gal(b1-4)GlcNAc(b1-3)[GlcNAc(b1-6)]Gal(b1-4)GlcNAc
How it was run: as §1

[21] = target: Gal(b1-4)GlcNAc(b1-6)Gal(b1-4)GlcNAc
How it was run: as §1

[22] = target: Gal(b1-4)GlcNAc(b1-6)Gal(b1-4)GlcNAc(b1-6)GalNAc
How it was run: as §1

[23] = target: Gal(b1-4)GlcNAc(b1-6)GalNAc
How it was run: as §1

B1: AMA (Arum maculatun) (protein)
chain: MAKLLLLLLLPAIVGLAVPRSAAAVGSNYMLSGETLNTDGRLTNGELTLIMQVDCNLVLYHGGWQSNTANNGRDCKLTLTDFGELVIKSGTGSTVWSSGSKQSMKGNYAAVVHPEGRLVIYGPSVFKINPSGAGLNGLPLRNIPLTNNMLFSGQVLYGDGTLSARNHKLVMQGDCNMVLYGGKYGWQSNTHGNGKYCFAMLTHKGELVIRDDDFKSVWSSKSSSKQGDYVFILQDDSLAIIYGPAVFSTGSKKMISMVTN
glycan array binding signal (z-score) [1]: -0.223 | glycan array binding signal (z-score) [2]: 0.191 | glycan array binding signal (z-score) [3]: 1.16 | glycan array binding signal (z-score) [4]: -0.199 | glycan array binding signal (z-score) [5]: 0.09 | glycan array binding signal (z-score) [6]: 0.52 | glycan array binding signal (z-score) [7]: -0.201 | glycan array binding signal (z-score) [8]: -0.156 | glycan array binding signal (z-score) [9]: 0.261 | glycan array binding signal (z-score) [10]: -0.201 | glycan array binding signal (z-score) [11]: -0.197 | glycan array binding signal (z-score) [12]: -0.149 | glycan array binding signal (z-score) [13]: -0.122 | glycan array binding signal (z-score) [14]: -0.134 | glycan array binding signal (z-score) [15]: -0.209 | glycan array binding signal (z-score) [16]: -0.21 | glycan array binding signal (z-score) [17]: -0.206 | glycan array binding signal (z-score) [18]: -0.213 | glycan array binding signal (z-score) [19]: -0.242 | glycan array binding signal (z-score) [20]: -0.227 | glycan array binding signal (z-score) [21]: -0.214 | glycan array binding signal (z-score) [22]: -0.236 | glycan array binding signal (z-score) [23]: -0.209
